Results as given in patent publication US5451518A, “Purified human ceramide-activated protein kinase” (Sloan-Kettering Institute for Cancer Research, priority 1992, dated 1995).

Experiments:
EL-4 cells = assay: Ceramide levels in intact EL-4 cells; assay type: cell-based, murine; details: maximally effective concentrations (n=5), SMase 1×10^-3 U ml^-1
Procedure: Time course (FIG. 12A) and dose response (FIG. 12B). Cells were grown to growth arrest (1-1.5×10^6 cells ml^-1) in DME/Ham's F12 medium (1:1, v/v) containing 10% horse serum and for 48 hours [^3 H]choline (1 μCi ml^-1). On the day of an experiment, cells were resuspended back into the same medium at 10×10^6 cells ml^-1 and stimulated with 40 ng ml^-1 IL-1β for the indicated times (FIG. 12A) or for 30 minutes with increasing concentrations of IL-1β (FIG. 12B). Human IL-1β may be obtained using methods well knownto those skilled in the art. Reactions were terminated with CHCl3 :CH3 OH:HCl (100:100:1) containing 10 mM EDTA (82). Lipids in the organic phase extract were dried under N2 and subjected to mild alkaline hydrolysis (0.1M methanolic KOH for 1 hour at 37° C.) to remove glycerophospholipids. Spingomyelin was resolved by thin-layer chromatography (TLC) using CHCl3 :CH3 OH:CH3 COOH:H2 O (60:30:8:5) as solvent, identified by iodine vapor staining, and quantified by liquid scintillation spectrometry. As previously reported, the use of [^3 H]choline as a measure of sphingomyelin content was validated by simultaneous phospholipid phosphorus measurements (62). Each value represents the mean ± SEM of triplicate determinations from four experiments in (FIG. 12A), and one representative of four similar studies performed in triplicate in (FIG. 12B).
Cells were stimulated as in FIGS. 12A and 12B with IL-1β (40 ng ml^-1) and ceramide contained within the organic phase extract quantified enzymatically using the E. coli diacylglycerol kinase reaction (57). Lipids were resolved by TLC using CHCl3 :CH3 OH:CH3 COOH (65/15/5) as solvent, autoradiographed and quantified by liquid scintillation spectrometry. Each value represents the mean ± SEM of triplicate determinations from 10 experiments.

EL4 cells = details: 24 h
HL-60 cells = details: sphingomyelinase 1×10^-3 U ml^-1; cited from earlier work

Molecule	ceramide response (in words) (EL-4 cells)	IL-2 secretion in combination with TPA (in words) (EL4 cells)	elevation in ceramide levels in HL-60 cells (HL-60 cells)
CCCCCCCCCCCCCC(=O)O[C@@H]1[C@@H](C)[C@@]2(O)[C@@H](C=C(CO)C[C@]3(O)C(=O)C(C)=C[C@@H]23)[C@@H]2C(C)(C)[C@]12OC(C)=O [TPA, 12-0-tetradecanoylphorbol-13-acetate, reference compound]	failed to elicit a ceramide response	–	–
CNC[C@H](O)c1ccc(O)c(O)c1 [epinephrine, reference compound]	failed to elicit a ceramide response	–	–
concanavalin A [reference compound]	failed to elicit a ceramide response	–	–
sphingomyelinase	–	replaced IL-1β to stimulate IL-2 secretion	two-fold elevation in ceramide levels
